Values joined by “and” are separate entries in the source; they are usually repeats but may differ in a detail not shown here. Equal entries are not always repeated. The whole screen tested about 290,000 compounds, of which about 2,100 (0.72%) were called active. Inconclusive means that the source gave no clear call. Such entries were picked first, then a sample of the others. Calls come from the whole dose curve; as a rule, active = well fitted inhibition curve with a large enough effect; inconclusive = small, poorly fitted or top-dose-only effect, or effect the other way; inactive = flat fitted curve, though single readings scatter. Potencies beside an inconclusive call are fits to weak or partial responses and may not hold up.
What follows are molecules tested against Fructose-bisphosphate aldolase (Giardia intestinalis (strain ATCC 50803 / WB clone C6)) (UniProt A8B2U2) (assay: qHTS Assay for Inhibitors of Fructose-1,6-bisphosphate Aldolase from Giardia Lamblia). Conditions: purified Giardia FBPA; series mostly up to 59.6 µM.
In short: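 40 nM FBPA preincubated 10 min at RT with compound (up to 57.5 uM final), then substrate plus GAPDH/TPI/NAD/arsenate coupling and diaphorase/resazurin added. Fluorescence read after 20 min at RT, 525/598 nm.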
Note: nearly all actives have a fitted effect of over 55% in size.
Potency is the fitted concentration of half-maximal effect; tags give direction and shape of the fitted curve.

Sequence of UniProt A8B2U2 (A8B2U2 whole entry, looked up): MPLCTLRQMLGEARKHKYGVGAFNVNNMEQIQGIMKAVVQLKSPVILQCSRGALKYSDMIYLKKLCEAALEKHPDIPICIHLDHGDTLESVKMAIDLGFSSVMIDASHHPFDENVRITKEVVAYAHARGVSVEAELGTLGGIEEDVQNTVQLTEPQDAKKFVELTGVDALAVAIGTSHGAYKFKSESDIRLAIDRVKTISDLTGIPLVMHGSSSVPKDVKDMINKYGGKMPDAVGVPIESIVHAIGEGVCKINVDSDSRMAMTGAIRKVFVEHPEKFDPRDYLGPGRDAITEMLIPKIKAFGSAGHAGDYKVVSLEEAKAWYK

| SMILES | Potency |
| --- | --- |
| O=c1cc(C(F)(F)F)[nH]c2ccc(OC(F)(F)F)cc12 | inconclusive: 15.8 µM [inhibitor, partial curve] |
| Cc1nnc(Sc2cc(NCCO)c([N+](=O)[O-])c3nonc23)s1 | inconclusive: 0.792 µM [inhibitor, full curve] |
| CCOc1ccc(C(=O)NC(=S)Nc2ccccn2)cc1[N+](=O)[O-] | inconclusive: 3.97 µM [inhibitor, full curve] |
| CCOc1cc(N2CCOCC2)c(OCC)cc1NS(=O)(=O)c1ccc(Cl)s1 | inconclusive: 3.15 µM [inhibitor, full curve] |
| O=C(N/N=C/c1ccccn1)c1cc(-c2ccccc2Cl)n[nH]1 | active: 15.8 µM |
| COc1ccc(OCC(O)CN2CCNCC2)cc1 (centres undefined) | inconclusive: 7.08 µM [inhibitor, partial curve] |
| CN(C)c1ccc(NC(=S)NC(=O)/C=C/c2ccc(Cl)cc2)cc1 | inactive |
| O=C(NCc1ccc2c(c1)OCO2)Nc1ccc(Cl)cc1 | inactive |
| S=C(Nc1ccccc1)Nc1ccc(Cl)cc1Cl | inconclusive: 5.01 µM [inhibitor, partial curve] |
| Cc1ccc(NC(=O)c2cc3c(s2)CCC3)cc1S(=O)(=O)N1CCOCC1 | inactive |
| CCOc1ccc(/C=C/C(=O)c2cc(Br)ccc(=O)c2O)cc1 | inconclusive: 44.6 µM [activator, single point] |
| CCSc1ncccc1C(=O)N[C@@H](CCSC)C(=O)OC | inactive |
| N#CCCn1cc(C(=O)NCc2ccccc2)c(-c2ccccc2)n1 | inconclusive: 15.8 µM [inhibitor, partial curve] |
| COc1cc(OC)cc(C(=O)NCC(=O)N2CCN(c3ccc(O)cc3)CC2)c1 | inactive |
| CC(OCC(O)CN(C)Cc1nc2ccccc2c(=O)[nH]1)c1ccc(Cl)cc1 (centres undefined) | inconclusive: 31.5 µM [inhibitor, single point] |
| CCN1CCN(c2oc(/C=C/c3ccccc3)nc2C#N)CC1 | inconclusive: 15.8 µM [inhibitor, single point] |
| COC(=O)CCCC1=CC2=CC(=O)C(C)(OC(=O)c3cccs3)C(=O)C2=CN1CCCOC(C)C (centres undefined) | inconclusive: 177 nM [inhibitor, full curve] and inconclusive: 397 nM [inhibitor, partial curve] |
| CCCCCCn1c(CN2CCN(Cc3ccccc3)CC2)nc2c1c(=O)n(C)c(=O)n2C | inactive |
| O=C(Nc1ccc([N+](=O)[O-])cc1)Nc1ccc(N2CCOCC2)c2nonc12 | inconclusive: 15.8 µM [inhibitor, partial curve] |
| COc1cc(CNn2cn[nH]c2=S)ccc1OCC(=O)NC(C)(C)C | active: 10 µM |
| Cc1ccc(OCC(O)CNC2CCCC2)c(C)c1 (centres undefined) | inactive |
| CCOC(=O)C1=C(CC)OC(N)=C(C#N)C1c1ccc(OC)c(OC)c1OC (centres undefined) | inconclusive: 22.3 µM [inhibitor, single point] |
| Cc1nnn(-c2nonc2N)c1C(=O)N/N=C/c1ccccc1O | inactive |
| CC1CCCN(S(=O)(=O)c2ccc(C(=O)Nc3nnc(-c4ccco4)o3)cc2)C1 (centres undefined) | inconclusive: 31.6 µM [inhibitor, single point] |
| N#Cc1cccc(NC(=O)Cc2ccccc2)c1 | inactive |
| COc1ccc(C(=O)CCC(=O)N2CCN(c3ccc(C)cc3)C(C)C2)cc1 (centres undefined) | inactive |
| COc1cccc(CN(C)CC(=O)Nc2cccc3ccccc23)c1 | active: 17.7 µM |

| SMILES | Potency |
| --- | --- |
| COc1ccc2nc3ccccc3nc2c1 | inconclusive: 2.23 µM [inhibitor, partial curve] |
| C=CCNC(=S)Nc1sc2c(c1C#N)CCCC2 | inconclusive: 15.8 µM [inhibitor, partial curve] |
| COc1cc2c(C)nc3onc(-c4ccccc4)c3c2cc1OC | inconclusive: 5.61 µM [inhibitor, full curve] |
| COc1ccc(N(C(=O)Cn2nnc3ccccc32)C2(C(=O)NC3CCCC3)CCCCC2)cc1 | inactive |
| COc1ccc(CN2CC(=O)N(c3cc(Cl)ccc3C)C2=S)cc1OC | inactive |
| O=[N+]([O-])c1cc(CN2CCN(c3cccc(C(F)(F)F)c3)CC2)c2cccnc2c1O | active: 15.8 µM |
| Cc1snc2sc(C(=O)c3ccc(F)cc3)c(N)c12 | active: 6.29 µM |
| CC1CCN(CCCOc2ccc(Br)cc2Cl)CC1 | inconclusive: 17.7 µM [inhibitor, partial curve] |
| O=C(Cc1ccc2c(c1)OCCO2)c1c(O)cc(O)cc1O | inactive |
| Cn1cc(C(=O)c2ccc(Cl)cc2Cl)cc1C(=O)N/N=C(\N)COc1ccc(F)cc1 | inactive |
| COc1ccc(N=C2S/C(=C\c3cc(C)n(C)c3C)C(=O)N2C)cc1 | inactive |
| N#C/C(=C/c1ccc(N2CCCCC2)o1)c1cccc(F)c1 | inconclusive: 17.7 µM [inhibitor, partial curve] |
| O=CN/N=C/c1c(O)ccc2ccccc12 | inactive |
| O=C(O)c1ccccc1NS(=O)(=O)c1cccc(-n2sc3ccccc3c2=O)c1 | inconclusive: 12.6 µM [inhibitor, partial curve, poor fit] |
| O=c1oc2ccc(Cl)cc2nc1/C=C(\O)c1ccco1 | inconclusive: 15.8 µM [inhibitor, partial curve] |
| CCN(CC)C(=S)SCC(=O)Nc1nc(=O)c2ccccc2s1 | inactive |
| CNC1=C(N(C(C)=O)c2ccc(Br)cc2)C(=O)c2ccccc2C1=O | inconclusive: 0.177 µM [inhibitor, full curve] |
| Clc1cccc(Cl)c1CNc1ccc(N2CCCC2)cc1 | inconclusive: 4.46 µM [inhibitor, full curve] |
| Cc1ccc(C(O)c2nccn2C)o1 (centres undefined) | inconclusive: 22.4 µM [inhibitor, single point] |
| COc1cc(N(C)C)cc(CN(C)CCc2ccc([N+](=O)[O-])cc2)c1O | active: 7.92 µM |
| Cc1c(C=O)c(Cl)n(C)c(=O)c1C#N | active: 9.98 µM |
| Cc1ccc2c(c1)Cc1c(C(=O)NC3CCCCC3)nn(-c3ccc(Cl)cc3Cl)c1-2 | inconclusive: 19.9 µM [inhibitor, partial curve] |
| O=C(O)c1ccc(C=C(c2nc3ccccc3s2)c2nc3ccccc3s2)cc1 | inconclusive: 17.7 µM [activator, partial curve] |
| CCOc1cc(NC(=S)Nc2ccc(Cl)cc2)c(OCC)cc1NC(C)=O | inconclusive: 28.1 µM [inhibitor, single point] |
| O=C(NCCCN1CCOCC1)c1ccc(Cl)c(S(=O)(=O)N2CCCCCC2)c1 | inactive |
| COc1cc(/C=N/Nc2nc(C)cc(C)n2)cc(OC)c1OC | active: 15.8 µM |
| CCC(CO)n1c(=S)[nH]c2cc(OC)c(OC)cc2c1=O (centres undefined) | inconclusive: 19.9 µM [inhibitor, single point] |

| SMILES | Potency |
| --- | --- |
| O=S(=O)(Nc1ncccn1)c1ccc(NC(=S)Nc2ccc(Cl)cc2)cc1 | inactive |
| CCC(C)C(=O)Nc1nnc(SCC(=O)NC(C)(C)C)s1 (centres undefined) | inactive |
| S=C(NCCNC(=S)Nc1ccccc1)Nc1ccccc1 | inconclusive: 15.8 µM [inhibitor, partial curve] |
| CC(=O)NC(Cc1ccccc1)C(=O)OCC(=O)c1ccc(Br)cc1 (centres undefined) | inactive |
| Cc1ccc(COC(=O)c2cc([N+](=O)[O-])ccc2N2CCOCC2)cc1 | inactive |
| O=C(O)c1cccc(S(=O)(=O)Nc2ccc3[nH]c(=O)[nH]c3c2)c1 | inconclusive: 6.29 µM [inhibitor, partial curve] |
| N#Cc1ccc(C(=O)Nc2nnc(-c3ccco3)o2)cc1 | inconclusive: 15.8 µM [inhibitor, single point] |
| COc1ccc(-c2cc(=O)[nH]c(=S)[nH]2)cc1 | active: 15.8 µM |
| Cc1c(NC(=O)c2csc3c2CCCC3)c(=O)n(-c2ccccc2)n1C | inactive |
| Cc1ccc(NP(=O)(Nc2ccc(C)cc2)Oc2ccccc2)cc1 | inactive |
| Nc1n[nH]c(N)c1N=Nc1ccc(Cl)cc1 | inactive |
| COc1cccc(C(=O)NC(=S)Nc2cccnc2)c1 | inconclusive: 15.8 µM [inhibitor, partial curve] |
| CCCSc1nc2cc(C)c(C)cc2n1CC(C)O (centres undefined) | inconclusive: 15.8 µM [inhibitor, partial curve] |
| Nc1nc2ncc(=O)[nH]c2c(=O)[nH]1 | inactive |
| NC(=NCc1ccc2c(c1)OCO2)NC(=O)c1ccccc1 | active: 1.41 µM |
| COc1cc(COCC(O)CN2C(C)CCCC2C)cc(OC)c1OC (centres undefined) | inactive |
| CC(C)c1ccc(Nc2nc(Cl)nc(Cl)n2)cc1 | inconclusive: 14.1 µM [inhibitor, partial curve] |
| COc1ccc(C2NC(=S)N3C(c4ccc(OC)cc4)NC(=S)N23)cc1 (centres undefined) | inconclusive: 15.8 µM [inhibitor, single point] |
| COc1ccc(/C=N/NC(=S)Nc2ccccc2)cc1COc1ccc(F)cc1 | inactive |
| COc1ccc(S(=O)(=O)Nc2cc(Sc3ncn[nH]3)c(O)c3ccccc23)cc1 | active: 0.561 µM |
| CCOC(=O)C1CCCCN1Cc1ccc(OC)c(OC)c1 (centres undefined) | inconclusive: 15.8 µM [inhibitor, partial curve] |
| Cc1ccc(C(=O)N/N=C/c2ccc(-c3ccccc3[N+](=O)[O-])o2)cn1 | inconclusive: 11.2 µM [inhibitor, partial curve, poor fit] |
| COC(C(=O)Nc1ccc(S(=O)(=O)N2CCCCC2)cc1)c1ccccc1 (centres undefined) | inactive |
| CCCN(CCC)[C@H]1CCc2c(F)ccc(O)c2C1 | inactive |
| C=CCNC(=S)NNC(=O)c1ccncc1 | inconclusive: 5 µM [inhibitor, partial curve] |

— PubChem BioAssay AID2451 (National Center for Advancing Translational Sciences (NCATS), 2010)
